SMILES strings stand for the structures.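 Dose response: 5 concentrations. Exposure: 48 h. Format: 96-well plates. Endpoint: linear interpolation; highest concentration if not reached. GI50 is the concentration that inhibits growth by half.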 Calls of active or inactive are those of the source. No stated cut-off is given here; in the data, active = GI50 up to about 1.1 µM and inactive = higher. Where only a bound is given, the exact number is not on record here.

This assay concerns NCI-H322M. The assay can be described thus: NCI-60 cell line screen, 48 h.
As for `CC(=O)Nc1ccc(-c2nc3ccccc3s2)cc1Cl`, the GI50 is inactive: 56.1 µM.

Regarding `O=C(Nc1ccc(Nc2ccc3c(c2)C(=O)c2ccccc2C3=O)c2c1C(=O)c1ccccc1C2=O)c1ccccc1`, the GI50 was inactive: > 100 µM.

Consider `CC(=O)CCn1[nH]c(=O)c(Cl)c(Cl)c1=O`, for which the GI50 is inactive: > 100 µM.

Regarding `O=[N+]([O-])c1ccc(/C=N/C23CC4CC(CC(C4)C2)C3)cc1`, the GI50 is inactive: > 100 µM.

As for `COc1cccc(C2N3CCCCC3[C@@H]3c4[nH]c5ccccc5c4CCN23)c1OC` (stereo partly specified), the GI50 was inactive: 15.4 µM.

With `O=[N+]([O-])c1nc(-c2ccccn2)[nH]c1[N+](=O)[O-]`, the GI50 is inactive: 40.4 µM.

For `COc1cccc(C2CC(C)(O)Oc3cc4c(cc32)OCO4)c1O` (stereo unspecified), the GI50 is inactive: 34.2 µM.

Regarding `COC(=O)C(/C(=N/N)C(=O)Nc1cc(Cl)ccc1Cl)c1nc2ccc([N+](=O)[O-])cc2nc1O` (stereo unspecified), the GI50 is inactive: > 100 µM.

In the case of `COC(=O)C1C(C(=O)OC)C2C(=O)C3C(C(=O)OC)C(C(=O)OC)C3C(=O)C12` (stereo unspecified), the GI50 is inactive: > 100 µM.

As for `CC1=CC(=O)/C(=C/n2c(=S)[nH]c3cc(C)ccc32)C(=O)O1`, the GI50 is inactive: > 100 µM.

With `CN(C)/C=C/C(=O)c1cccc(C(=O)/C=C/N(C)C)n1`, the GI50 is inactive: > 100 µM.

As for `O=C(/C=C/c1ccccc1)c1cc(Br)ccc1O`, the GI50 was inactive: 19.9 µM.

For the compound `CNC(=O)OC(C)CN1c2ccccc2Sc2ccccc21` (stereo unspecified), the GI50 is inactive: 84.5 µM.

Regarding `COC(=O)c1nc(N)nc(O)c1CCCCCc1c(O)nc(N)nc1C(=O)OC`, the GI50 is inactive: > 50 µM.

`CC(=O)O[C@@H]1[C@H]2[C@@H](OC(=O)c3ccccc3)[C@@H](C)C[C@]2(O)[C@H](OC(C)=O)[C@@]2(C)[C@@H]3CC(C)(C)C(=O)[C@]3(OC(C)=O)C[C@@]12C`: the GI50 is inactive: > 25 µM.

In the case of `Cc1cccc(C)c1N1C(=O)C(=O)C(c2nc3ccccc3s2)/C(=N\N)C1=O` (stereo unspecified), the GI50 was inactive: > 100 µM.

As for `O=C(Nc1ccccc1)O/N=C(/CBr)c1ccccc1`, the GI50 is inactive: 18.7 µM.

For `COc1ccc(/C=C/C(=O)c2cccc(C(=O)/C=C/c3ccc(OC)c(OC)c3)n2)cc1OC`, the GI50 was inactive: > 100 µM.

For the compound `Cc1ccccc1-n1c(C)nc(-c2ccccc2)cc1=O`, the GI50 was inactive: > 100 µM.

In the case of `C=C(C)CC(C(=O)O)c1ccc(C)cc1` (stereo unspecified), the GI50 was inactive: > 100 µM.

With `Cc1nc2ccccc2c(=O)n1-c1n[nH]c2ccccc12`, the GI50 was inactive: > 100 µM.

For the compound `C[C@H](NC(=O)C(Cc1ccccc1)(Cc1ccc(O)cn1)NC(=O)c1ccccc1)c1ccccc1` (stereo partly specified), the GI50 is inactive: 18.5 µM.

In the case of `C/C=C/C[C@@H](C)C(=O)C1C(=O)N[C@@H](C(C)C)C(=O)N(C)CC(=O)N(C)[C@@H](CC(C)C)C(=O)N[C@@H](C(C)C)C(=O)N(C)[C@@H](CC(C)C)C(=O)N[C@@H](C)C(=O)N[C@@H](C)C(=O)N(C)[C@@H](CC(C)C)C(=O)N(C)[C@@H](CC(C)C)C(=O)N(C)[C@@H](C(C)C)C(=O)N1C` (stereo partly specified), the GI50 is inactive: 7.59 µM.

`O=C(O)c1ccc([I+]c2ccccc2)cc1`: the GI50 is inactive: > 100 µM.

As to `O=C(CCSC(CC(=O)c1ccc(Cl)cc1)c1ccc(Cl)cc1)Nc1ccc(Cl)cc1` (stereo unspecified), the GI50 is inactive: 10.4 µM.

Turning to `COc1ccc(C(=O)/C(=N/Nc2ccccc2)c2ccc(OC)cc2)cc1`, the GI50 is inactive: > 100 µM.

On to `O=NN(CCCl)C(=O)N[C@H]1CC[C@@H](C(=O)O)CC1`, for which the GI50 was inactive: > 100 µM.

`CC1(C)CC2(C)CC1CC2O` (stereo unspecified): the GI50 was inactive: > 100 µM.

With `O=C(c1ccc(Cl)cc1Cl)N(C(=O)N1CCC(c2ccccc2)CC1)c1ccccc1`, the GI50 is inactive: > 100 µM.

`CC1CCC(O)C(C(O)CC2CC(=O)N(C)C(=O)C2)C1` (stereo unspecified): the GI50 is inactive: > 100 µM.

On to `NC(=O)NC(=O)c1cnccn1`, for which the GI50 is inactive: > 100 µM.

With `Cc1ccc(S(=O)(=O)N/N=C2\CC3C4C=CC3C2C4)cc1` (stereo unspecified), the GI50 was inactive: > 100 µM.

Take `CP(=O)(O)C(N)c1ccccc1` (stereo unspecified): the GI50 is inactive: > 100 µM.

Turning to `COc1ccc2c(c1)[C@@H]1c3cc(OC)c(OC)cc3CCN1CCC2`, the GI50 was inactive: > 100 µM.

With `CC1=C/C(=N/N2C(=O)/C(=C/c3ccc(Cl)cc3)N=C2c2ccccc2)CC(C)(C)C1`, the GI50 was inactive: > 100 µM.

`O=C(NC(Nc1ccc(F)c(Cl)c1)(C(F)(F)F)C(F)(F)F)OCc1ccccc1`: the GI50 was inactive: 72.1 µM.

On to `COC(=O)c1nn(-c2ccccc2)c(=O)cc1N=[N+]=[N-]`, for which the GI50 was inactive: > 100 µM.

As for `C1CCSCCCCSCCCCSCCCCSC1`, the GI50 is inactive: > 100 µM.

On to `Nc1ccn(CCNCCn2cnc3nc(N)[nH]c(=O)c32)c(=O)n1`, for which the GI50 is inactive: > 100 µM.

As for `CCCN(CCC)C(=S)N/N=C/c1cccc(C)n1`, the GI50 is active: 0.0261 µM.

On to `CC(C)NC(=O)OCc1c(COC(=O)NC(C)C)c(-c2cc[n+](COC(=O)C(C)(C)C)cc2)n2c1CCC2`, for which the GI50 is inactive: > 100 µM.

For `O=[N+]([O-])c1cccc(C2=NN(c3ccccc3)C3c4cc(Br)ccc4OCC23)c1` (stereo unspecified), the GI50 is inactive: > 100 µM.

Consider `C/C=C/C(=O)N1C(=O)OC[C@@H]1c1ccccc1`, for which the GI50 is inactive: 17.9 µM.

With `CN(C(=O)c1cccs1)C(=S)N1CCN(c2ccccn2)CC1`, the GI50 was inactive: > 100 µM.

On to `COc1ccc(C(=O)c2ccc(-n3c4ccccc4c4ccc5c(c43)C(=O)C=CC5=O)cc2)cc1`, for which the GI50 is inactive: 7.35 µM.

Regarding `O=C1C(Cl)C(c2ccc(Cl)cc2)N1n1cnc2ccccc2c1=O` (stereo unspecified), the GI50 was inactive: > 100 µM.

`CC1OCC2OC(C)OC(C3C4=C(CC(C)(C)CC4=O)OC4=C3C(=O)CC(C)(C)C4)C2O1` (stereo unspecified): the GI50 was inactive: > 100 µM.

As to `C[C@]12CC[C@H](O)CC1=CC[C@@H]1[C@@H]2CC[C@]2(C)c3nc(Cl)ccc3C[C@@H]12`, the GI50 was inactive: 29.9 µM.

With `C[N+](C)(C)CC(=O)N/N=C/c1ccncc1`, the GI50 is inactive: > 100 µM.

In the case of `COc1cc2[nH]c3c(c2cc1OC)CCN[C@@]31CC[C@@]2(CC3c4c(cc(OC)c(O)c42)CCN3C)C[C@@H]1OC` (stereo partly specified), the GI50 is inactive: 62.8 µM.

For the compound `COc1cc(CNc2cnc3ccc(N)cc3n2)cc(OC)c1OC`, the GI50 was inactive: > 100 µM.

On to `COC(=O)C1=C(O)C(C(=O)OC)[C@]2(O)[C@H](C(=O)OC)[C@H]1C[C@@H](c1ccc([N+](=O)[O-])cc1)[C@H]2C(=O)OC` (stereo partly specified), for which the GI50 was inactive: 20.9 µM.

On to `CCCCNC(=S)OCCC(C)CCCC(C)C` (stereo unspecified), for which the GI50 was inactive: > 100 µM.

For `CC(=O)O[C@H]1C#C/C=C\C#CC[C@@H]2C(=O)N[C@@H]12`, the GI50 was inactive: > 100 µM.

On to `O=S(=O)(/N=S(/Nc1ccccc1)C(F)(F)Cl)c1ccccc1` (stereo unspecified), for which the GI50 is inactive: > 100 µM.

As to `CCN(CC)CCNc1ccc([N+](=O)[O-])c2nc3ccc(OC)cc3c(N)c12`, the GI50 was inactive: 1.33 µM.

As to `OCC1C(O)C(O)[C@@H]2SCCN12` (stereo partly specified), the GI50 was inactive: > 100 µM.

In the case of `NC(CCOCCP(=O)(O)CCC1C=CC=CC1)C(=O)O` (stereo unspecified), the GI50 was inactive: > 100 µM.

As for `CC(C)[Si](OC1=CCCCCC12C(=O)N(C)c1ccccc12)(C(C)C)C(C)C` (stereo unspecified), the GI50 is inactive: 18.9 µM.

For `O=C1C=C(c2c(O)ccc3ccccc23)c2cc(O)ccc2C1=O`, the GI50 is inactive: 19 µM.

With `CNc1ccc([S+]([O-])Nc2ccccc2)cc1` (stereo unspecified), the GI50 was inactive: > 100 µM.

Turning to `N=C1C=C(N)C(=O)c2[nH]c(=O)ccc21`, the GI50 was inactive: 2.23 µM.

Consider `Cc1nc2nnnn2c2c1C(=O)Nc1ccccc1N2`, for which the GI50 was inactive: > 100 µM.

Take `Cc1ccc(C(=O)N/N=C(\N=N\c2ccccc2[N+](=O)[O-])c2ccc(N(C)C)cc2)cc1`: the GI50 was inactive: > 100 µM.

On to `CC1=NNC(=O)C1C1CC(c2c[nH]c3ccccc23)=NN(C(N)=O)C1=O` (stereo unspecified), for which the GI50 was inactive: > 100 µM.

Turning to `Nc1nc(Cl)c(N)c(NCC2(CO)CC(OCc3ccccc3)C2)n1` (stereo unspecified), the GI50 was inactive: > 100 µM.

As to `CC(C)(C)OC(=O)N/N=C(/N)Cc1ccc(Cl)cc1`, the GI50 was inactive: > 100 µM.

In the case of `COc1cc(/C=C(\C#N)c2ccccc2)cc(OC)c1`, the GI50 is inactive: > 100 µM.

For the compound `CCCSc1ccc2[nH]c(N3C(=O)/C(=C/c4ccc(SC)cc4)N=C3c3ccccc3)cc2c1`, the GI50 is inactive: 25.1 µM.

In the case of `O=S(=O)(O)C(O)/C=C/c1ccccc1` (stereo unspecified), the GI50 is inactive: > 100 µM.

Regarding `O=S(=O)(O)c1ccc2c(/N=N/c3cccc4ccccc34)c(O)ccc2c1`, the GI50 is inactive: > 100 µM.

On to `CC(C)(O)/C=C\P(=O)(O)O`, for which the GI50 is inactive: > 100 µM.

With `C/C=C/C=C\C=C/C(O)C(C)C(CCC(C)C1OC(=O)C=CC1C)OP(=O)(O)O` (stereo unspecified), the GI50 was active: 0.555 µM.

For the compound `C=C(C)[C@H](O)C(O)CC(C)[C@@H]1CCC23CC12CCC1[C@@]2(C)CCC(OC(C)=O)C(C)(C)C2CC(OC2OC(COC(C)=O)C(O)C(O)C2O)[C@]13C` (stereo partly specified), the GI50 is inactive: 6.32 µM.

With `C[C@]12CCC[C@H](Cl)C1(O)C[C@H](C(=O)O)CC2` (stereo partly specified), the GI50 is inactive: > 100 µM.

For `CN(C)CCOC1(CC2CCCCC2)CCC(C(C)(C)C)CC1` (stereo unspecified), the GI50 is inactive: 6.82 µM.

`COc1cc(C)c2c(c1C)OC(=O)c1c(C)c(Cl)c(O)c(C=O)c1O2`: the GI50 was inactive: 21.5 µM.

Turning to `O=C(O)CN(c1ccccc1)S(=O)(=O)c1ccc(Cl)cc1`, the GI50 is inactive: > 100 µM.

Take `COc1cc2c(cc1OC)-c1[nH]c3ccc([N+](=O)[O-])cc3c1CC(=O)N2`: the GI50 was inactive: 3 µM.

Take `C[n+]1c(-c2ccc(/C=N/NC(=O)c3ccc(C(=O)N/N=C/c4ccc(-c5cn6ccccc6[n+]5C)cc4)cc3)cc2)cn2ccccc21`: the GI50 is inactive: > 100 µM.

For the compound `O=[N+]([O-])c1ccc2c(c1)Nc1c3ccccc3nc3cccc-2c13`, the GI50 was inactive: 14 µM.
